{"source": "PubChem BioAssay AID2094", "about": "(Broad Institute, 2009)", "note": "Among all 300,000 compounds or so, about 1,200 (0.4%) were called active. The shares of active, inactive and inconclusive entries below differ from those in the screen. Cut-off read from the data, not from the text of the source: active = activity change below about -75% (passing the limit was not always enough); inconclusive = no clear call, values can overlap the other calls.", "data": [{"experiment": "Vibrio harveyi AI-2 quorum sensing modulators, primary screen, JMH597 strain, luminescence/OD600 ratio (AID 2094);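 note: luminescence divided by OD600 gain over 9 h not by final OD600 alone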", "conditions": "Vibrio harveyi JMH597 AI-2 luminescence/OD600 ratio, 9 h; at 7.5 µM; active compounds read low; 0 = neutral-control median; strain lacks LuxN and CqsS sensors", "values": [{"smiles": "COc1ccccc1C(=O)COC(=O)/C=C/c1ccccc1", "activity change": "inconclusive: -73.4%"}, {"smiles": "O=C(Nc1nc(-c2ccccn2)cs1)c1ccc(Br)s1", "activity change": "active: -95.1%"}, {"smiles": "O=C1C=C(c2ccccc2)C(=O)N1Nc1ccccc1", "activity change": "inactive: 23.9%"}, {"smiles": "O=C(O)c1ccc(N/N=C/c2cc3c(cc2[N+](=O)[O-])OCO3)cc1", "activity change": "inconclusive: -77.8%"}, {"smiles": "COc1cccc(/C=N/NC(=O)c2cc(-c3cccn3C)n[nH]2)c1", "activity change": "inactive: 42.8%"}, {"smiles": "O=C(Nc1ccc([N+](=O)[O-])cc1)Nc1nc(-c2ccc(Cl)s2)cs1", "activity change": "active: -85.5%"}, {"smiles": "O=C(CCc1ccccc1)Nc1cc(Cl)ccc1O", "activity change": "active: -96.5%"}, {"smiles": "COc1ccc(CCC(=O)Nc2cccc(Cl)c2)cc1", "activity change": "active: -82.9%"}, {"smiles": "CN(C)S(=O)(=O)Nc1ccc(Oc2ccccc2)cc1", "activity change": "active: -92.9%"}, {"smiles": "Cc1ccc(CSc2nnc(-c3cccnc3)o2)cc1", "activity change": "active: -96.2%"}, {"smiles": "Cc1ccc(F)c(NC(=O)CCOc2ccccc2C)c1", "activity change": "inconclusive: -74.3%"}, {"smiles": "CCCCCCc1c(O)nc(SCCN2CCOCC2)[nH]c1=O", "activity change": "inactive: 20.9%"}, {"smiles": "N#C/C(=C\\c1coc2ccc(O)cc2c1=O)C(=O)Nc1nc2ccccc2s1", "activity change": "inconclusive: -27%"}, {"smiles": "O=C(COc1ccccc1)Nc1nnc(-c2ccc3c(c2)CCCC3)o1", "activity change": "inconclusive: -35.2%"}, {"smiles": "O=C(Nc1ccc(Oc2ccccc2)cc1)C1CC1", "activity change": "active: -87.2%"}, {"smiles": "O=C(COc1ccccc1)Nc1nnc(-c2ccccc2Cl)o1", "activity change": "active: -79%"}, {"smiles": "O=C(N/N=C/c1ccc([N+](=O)[O-])o1)c1ccncc1", "activity change": "inconclusive: -33.7%"}, {"smiles": "NN(Cc1ccccc1)C(=S)Nc1ccc(Cl)c(Cl)c1", "activity change": "inconclusive: -66.5%"}, {"smiles": "CCC(C)(C(=O)NC1CCCCC1)N(Cc1ccco1)C(=O)CC1NC(=O)NC1=O", "note": "(centres undefined)", "activity change": "inactive: 2.5%"}, {"smiles": "Cc1cccc(-n2c(O)c(C=Nc3ccccc3-c3n[nH]c(=S)[nH]c3=O)c3ccccc3c2=O)n1", "activity change": "inconclusive: -149%"}, {"smiles": "C(=N\\Nc1nc(N2CCCC2)nc(N2CCCC2)n1)/c1cccnc1", "activity change": "inactive: 10.7%"}, {"smiles": "O=C(NNC(=S)NC(=O)c1ccco1)c1ccc(F)cc1", "activity change": "active: -104%"}, {"smiles": "CC(=O)N/N=C(\\C)c1cccc(NC(=O)c2cccs2)c1", "activity change": "inactive: 1.15%"}, {"smiles": "COc1ccc(OC)c(N(CC(N)=O)S(=O)(=O)c2ccc(OC)c(OC)c2)c1", "activity change": "inactive: 6.74%"}, {"smiles": "COc1cc(/C=N/NC(N)=O)cc([N+](=O)[O-])c1O", "activity change": "inactive: 6.46%"}, {"smiles": "CC(=O)c1ccc(OC(=O)/C=C/c2ccccc2)cc1", "activity change": "inconclusive: -74.1%"}, {"smiles": "CN1C(=O)CSc2ccc(NC(=O)NCc3ccc(F)cc3)cc21", "activity change": "inconclusive: -77%"}, {"smiles": "CS(=O)(=O)c1nc(-c2ccc(F)cc2)cc(C(F)(F)F)n1", "activity change": "inconclusive: -63.5%"}, {"smiles": "O=C(O)c1ccc(N/N=C/C=C/c2ccccc2)cc1", "activity change": "active: -84.5%"}, {"smiles": "Cc1ccc2nc(NC(=O)COC(=O)c3ccccn3)sc2c1", "activity change": "inconclusive: -67.1%"}, {"smiles": "O=C(CSc1ccc(F)cc1)Nc1ccc(N2CCOCC2)cc1", "activity change": "inactive: 9.78%"}, {"smiles": "Cc1ccc(NC(=O)Cn2nnc3ccccc3c2=O)cc1C", "activity change": "active: -93.2%"}, {"smiles": "O=C(NNc1nc(-c2ccc(Cl)cc2)cs1)c1ccco1", "activity change": "inconclusive: -73.7%"}, {"smiles": "CCCCn1c(SC(C)C(=O)c2ccc(OC)cc2)nc2cc(S(N)(=O)=O)ccc21", "note": "(centres undefined)", "activity change": "inactive: 50.5%"}, {"smiles": "O=C(NCc1ccc(Cl)cc1)Nc1ccc(F)cc1", "activity change": "inconclusive: -80.6%"}, {"smiles": "CC1S/C(=C(\\C#N)C(=O)NCc2ccco2)N(Cc2ccco2)C1=O", "note": "(centres undefined)", "activity change": "inconclusive: -68.8%"}, {"smiles": "CC(C)(C)c1ccc(C(=O)Nc2cccc3c(=O)[nH][nH]c(=O)c23)cc1", "activity change": "inconclusive: -75.3%"}, {"smiles": "Oc1ccc(Cl)cc1CNc1nccs1", "activity change": "active: -79.5%"}, {"smiles": "Cc1cccc2nc(CSc3nc4ccccc4[nH]3)cn12", "activity change": "inconclusive: -80.5%"}, {"smiles": "O=C(COC(=O)c1ccc(Cl)cc1[N+](=O)[O-])NC(=O)c1ccccc1", "activity change": "inconclusive: -47.8%"}, {"smiles": "CCN(CC)c1ccc2cc(C(=O)NNC(=O)c3ccc(S(=O)(=O)N4CCCCC4)cc3)c(=O)oc2c1", "activity change": "inactive: 31.9%"}, {"smiles": "COc1ccc(C2=Nn3c(nnc3-c3ccco3)SC2)cc1", "activity change": "inactive: 48.2%"}, {"smiles": "O=C(NCCCc1ccccc1)C(=O)c1c[nH]c2ccccc12", "activity change": "inconclusive: -71.8%"}, {"smiles": "S=c1[nH]nc(C2CCCCC2)n1/N=C/C=C/c1ccccc1", "activity change": "active: -92.4%"}, {"smiles": "CC(=O)c1cccc(OCc2cc(C(=O)N(C)Cc3cnccn3)no2)c1", "activity change": "inconclusive: -33.5%"}, {"smiles": "Oc1oc(-c2ccccc2)nc1C=NCc1ccccc1", "activity change": "inconclusive: -75.4%"}, {"smiles": "O=C(CC(Sc1ccc(Br)cc1)C(=O)O)c1ccc(Br)cc1", "note": "(centres undefined)", "activity change": "inconclusive: -35.3%"}, {"smiles": "O=C(Nc1ccc(Cl)cc1)Nc1nc(-c2ccccc2O)cs1", "activity change": "inconclusive: -59.2%"}, {"smiles": "O=C(Nc1ccc(Cl)cn1)c1ccc([N+](=O)[O-])o1", "activity change": "inconclusive: -62.8%"}, {"smiles": "CC1CCN(C(=O)c2ccc(NC(=O)c3ccccc3)cc2)CC1", "activity change": "inconclusive: -72.8%"}, {"smiles": "CC(C)(C)c1csc(NC(=O)Cn2cnc3ccccc3c2=O)n1", "activity change": "active: -95.1%"}, {"smiles": "CCOc1ccc(S(=O)(=O)n2cc(F)c(=O)[nH]c2=O)cc1[N+](=O)[O-]", "activity change": "inconclusive: -80.2%"}, {"smiles": "Fc1cccc(Nc2nc(-c3ccncc3)nc3ccccc23)c1", "activity change": "inactive: 10.7%"}, {"smiles": "O=C(Nc1ccc(S(=O)(=O)N2CCCC2)cc1)C1COc2ccccc2O1", "note": "(centres undefined)", "activity change": "inconclusive: -65.8%"}, {"smiles": "O=C(N/N=C/c1ccc([N+](=O)[O-])o1)c1ccc(O)cc1", "activity change": "active: -128%"}, {"smiles": "O=c1c2ccccc2oc2ccc(-c3ccc4[nH]ccc4c3)cc12", "activity change": "inconclusive: -80.3%"}, {"smiles": "CCCOc1ccc(C(=O)NNC(=S)NC(=O)c2cccs2)cc1", "activity change": "inconclusive: -89.6%"}, {"smiles": "CS/C(=N\\S(=O)(=O)c1cccs1)Nc1ccc(F)c(Cl)c1", "activity change": "inactive: 16.6%"}, {"smiles": "CCc1ccc(CN(C)CC(O)COc2cccc3ccccc23)cc1", "note": "(centres undefined)", "activity change": "inconclusive: -125%"}, {"smiles": "Cc1cc(C)nc(SCc2ccc(C(=O)N/N=C/c3cccc(O)c3O)cc2)n1", "activity change": "inconclusive: -77.5%"}, {"smiles": "O=C(O)c1cccc(NC(=S)NC(=O)c2ccc(-c3ccccc3)cc2)c1", "activity change": "inactive: 67.1%"}, {"smiles": "COc1ccc(OC)c(S(=O)(=O)n2nc(-c3ccccc3)cc2N)c1", "activity change": "inconclusive: -73.1%"}, {"smiles": "COC(=O)c1c(C)[nH]c(C(=O)CN2CCOCC2)c1C", "activity change": "inconclusive: -91.1%"}, {"smiles": "O=C(OCCCCN1C(=O)c2ccccc2C1=O)c1ccc(S(=O)(=O)N2CCCC2)cc1", "activity change": "inconclusive: -278%"}, {"smiles": "O=C(COc1nncc2ccccc12)Nc1ccc(Br)cc1F", "activity change": "inconclusive: -59.9%"}, {"smiles": "O=C(Nc1ccc(Oc2ccccc2)cc1)c1ccco1", "activity change": "active: -96.6%"}, {"smiles": "CCCOc1ccc(OCCSc2nnc(N)s2)cc1", "activity change": "inactive: 26.4%"}, {"smiles": "COc1cccc(OC)c1C(=O)Nc1cccc(-c2nc3ccccc3[nH]2)c1", "activity change": "inactive: 2.27%"}, {"smiles": "COc1ccc2nc3sc(C(=O)N4CCN(C)CC4)cc3cc2c1", "activity change": "active: -85.8%"}, {"smiles": "O=C(CCCN1C(=O)S/C(=C\\c2ccccc2)C1=O)NNC(=O)c1ccccc1O", "activity change": "inactive: 11.7%"}, {"smiles": "Cc1cc(Cl)n2c(nc3cc(F)c(F)cc32)c1C#N", "activity change": "active: -96%"}, {"smiles": "O=C(/C=C/c1ccccc1[N+](=O)[O-])NCc1ccc(Cl)cc1", "activity change": "inconclusive: -81.3%"}, {"smiles": "O=C(OCC(=O)N1CCC(c2ccccc2)=N1)c1ccc([N+](=O)[O-])s1", "activity change": "inconclusive: -71.4%"}, {"smiles": "C[C@H](NC(=O)OC(C)(C)C)C(=O)NCC1CCC(C(=O)N[C@@H](Cc2ccccc2)C(=O)O)CC1", "note": "(some centres undefined)", "activity change": "inactive: 13.3%"}, {"smiles": "O=C(CN1CCN(c2ccc(F)cc2)CC1)N1N=CCC1c1ccccc1", "note": "(centres undefined)", "activity change": "inactive: 10.3%"}, {"smiles": "O=C(NNc1nc2cc3c(cc2s1)OCCO3)c1ccccc1", "activity change": "active: -93%"}, {"smiles": "CCN1C(=O)Nc2cccc3cccc1c23", "activity change": "inactive: 20.2%"}, {"smiles": "O=C(Cn1nnc2ccccc2c1=O)Nc1ccc2c(c1)CCC2", "activity change": "active: -93.9%"}, {"smiles": "Cc1cccc(NC(=O)NCc2ccc3c(c2)OCO3)c1", "activity change": "active: -87.3%"}, {"smiles": "O=C(NCc1ccccc1F)Nc1ccc([N+](=O)[O-])cc1", "activity change": "inconclusive: -71.9%"}, {"smiles": "COc1ccc(S(=O)(=O)c2nnn(-c3cccc(Cl)c3)c2N)cc1", "activity change": "inconclusive: -73.4%"}, {"smiles": "COCCn1nnnc1CN1CCC(Cc2ccccc2)CC1", "activity change": "inactive: 13.7%"}, {"smiles": "C=CCn1c(N2CCCCCC2)nc2c1c(=O)[nH]c(=O)n2C", "activity change": "inactive: 22.7%"}, {"smiles": "Cc1ccc(NC(=O)CCC(=O)N/N=C/c2ccc([N+](=O)[O-])o2)cc1C", "activity change": "inconclusive: -62.6%"}, {"smiles": "Cc1sc2ncnc(N/N=C/c3ccccc3O)c2c1C", "activity change": "inconclusive: -61.8%"}, {"smiles": "O=C(COc1ccc(Cl)cc1)NCc1nnc(SCC(=O)N2CCCCC2)o1", "activity change": "inactive: 11.9%"}, {"smiles": "CCc1ccccc1OCC(=O)Nc1nc(-c2cccnc2)cs1", "activity change": "inconclusive: -71.8%"}, {"smiles": "Cc1ccc(S(=O)(=O)/C(C#N)=C/c2c[nH]c3ccccc23)cc1", "activity change": "inconclusive: -75.5%"}, {"smiles": "O=c1[nH]c(=O)n([C@H]2C[C@H](O)[C@@H](CO)O2)cc1F", "activity change": "active: -99%"}, {"smiles": "CCOC(=O)C(C)CC(C)C(=O)N1CCOCCN(C(=O)C(C)CC(C)C(=O)OCC)CCOCC1", "note": "(centres undefined)", "activity change": "inactive: 10.1%"}, {"smiles": "CC1CCN(C(=O)CSc2nnc(CNC(=O)c3c(F)cccc3F)o2)CC1", "activity change": "inactive: 4.56%"}, {"smiles": "O=C(COc1ccccc1)Nc1nnc(-c2ccc(F)cc2)o1", "activity change": "inconclusive: -75.5%"}, {"smiles": "COc1ccc(C(=O)NNC(=S)NC(=O)c2cccnc2)cc1", "activity change": "inconclusive: -113%"}, {"smiles": "CC(C)CCNC(=O)CN1C(=O)NC(c2ccccc2)(c2ccccc2)C1=O", "activity change": "active: -91.8%"}]}]}
